Measured values from PubChem BioAssay AID1159614 (National Center for Advancing Translational Sciences (NCATS), 2016).
Out of some 45,000 compounds screened, about 65 (0.1%) were called active. Calls come from the whole dose curve; as a rule, active = well fitted activation curve with a large enough effect; inconclusive = small, poorly fitted or top-dose-only effect; inactive = no such curve, though single readings can be large or run the other way. The list shows a part of the results.

molecular target: Galactocerebrosidase (Homo sapiens) (UniProt P54803); assay: A Novel Cell-Based Assay to Identify Small Molecules for B -Galactocerebrosidase; conditions: 145M-Twi-hGALC-G270D cells (Twitcher mouse brain line with human GALC G270D), HMU-beta-Gal fluorescence, 48 h; series mostly up to 57.5 µM; activation: at the top concentration; note: 0% is about no effect; nearly all actives have a fitted effect of over 65% in size
Method in brief: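 Mutant human GALC (G270D), stably expressed in a Twitcher mouse brain cell line lacking endogenous GALC, is measured in live-treated cells via 6-hexadecanoylamino-4-methylumbelliferyl-β-galactoside hydrolysis (0.1 mM final, pH 5.2) with fluorescent detection.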

UniProt P54803, sequence (P54803 whole entry, looked up): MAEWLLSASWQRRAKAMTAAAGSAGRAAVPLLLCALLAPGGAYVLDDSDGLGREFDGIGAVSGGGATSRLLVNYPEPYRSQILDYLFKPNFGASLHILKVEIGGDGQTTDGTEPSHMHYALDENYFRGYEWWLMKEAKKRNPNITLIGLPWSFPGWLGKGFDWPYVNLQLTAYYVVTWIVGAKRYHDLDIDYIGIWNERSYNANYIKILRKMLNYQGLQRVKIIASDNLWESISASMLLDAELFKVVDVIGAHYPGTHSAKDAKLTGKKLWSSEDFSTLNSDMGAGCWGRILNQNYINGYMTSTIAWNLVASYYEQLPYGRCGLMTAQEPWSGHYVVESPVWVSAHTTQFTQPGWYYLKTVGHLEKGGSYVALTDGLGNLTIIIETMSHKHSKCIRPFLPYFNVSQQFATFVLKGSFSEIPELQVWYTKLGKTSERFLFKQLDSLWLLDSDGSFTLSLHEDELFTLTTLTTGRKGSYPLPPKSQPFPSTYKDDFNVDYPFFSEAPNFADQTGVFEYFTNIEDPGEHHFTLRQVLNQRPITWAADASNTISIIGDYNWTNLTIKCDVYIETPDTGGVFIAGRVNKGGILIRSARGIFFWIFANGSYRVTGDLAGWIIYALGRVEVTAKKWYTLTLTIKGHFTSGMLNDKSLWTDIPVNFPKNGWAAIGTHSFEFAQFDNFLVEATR

SMILES | activation
CCC1CCCCN1C(=O)Cn1c(=O)n(CCCCCC(=O)NCc2ccc(F)cc2)c(=O)c2sccc21 (stereo not given) | inactive: -6.71%
Cc1cccn2c(=O)cc(COc3ccc(NC(=O)c4cccc(F)c4)cc3)nc12 | inactive: -3.9%
O=C(O)CCn1cnc2onc(-c3ccccc3Cl)c2c1=O | inactive: 1.67%
O=C(Nc1c(C(=O)Nc2cccc(C(F)(F)F)c2)oc2ccccc12)c1cc(=O)c2ccccc2o1 | inactive: -7.54%
COc1ccc(CNC(=O)C(C)N2Cc3ccccc3C2=O)cc1 (stereo not given) | inactive: 1.68%
CCCCOc1ccccc1C(=O)Nc1nonc1-c1ccccc1 | inactive: 6.47%
Cc1cccc(N(C)c2nc3ccc(C)cc3n3cnnc23)c1 | inactive: -31.9%
CCCc1ccc(OCC(=O)Nc2sc3c(c2C(=O)OC)CCCCC3)cc1 | inactive: -20.1%
CC(C)CC(=O)NCC1(N(C)C)CCCCC1 | inactive: 12.2%
CCn1ccc2cc(S(=O)(=O)N3CCCN(C(=O)Nc4ccc(C)c(F)c4)CC3)ccc21 | inactive: -27.9%
O=C(Nc1nnc(S(=O)(=O)N2CCCCCC2)s1)c1ccccc1Cl | inactive: 1.35%
COc1cc(OC)c(NC(=O)N2CCc3c(sc4c3CCCC4)C2c2ccccc2)cc1Cl (stereo not given) | inactive: -11.3%
Cc1cccc(NC(=O)C(Cc2ccccc2)n2cccc2)c1C (stereo not given) | inactive: -4.7%
CCOc1ccc(NC(=O)c2cc3c(s2)-c2ccccc2OC3)cc1 | inactive: -3.05%
Cc1nc(-c2ccccc2)sc1CCNC(=O)C(=O)Nc1ccc2c(c1)OCCO2 | inactive: -4.69%
CCOC(=O)c1ccc(NC(=O)CSc2nccn2-c2ccc(OCC)cc2)cc1 | inactive: -1.4%
COc1ccccc1CCNC(=O)Cc1c(C)c2c(cc(C)c3c(C)c(C)oc32)oc1=O | inactive: -12.3%
CCC(C)NC(=O)C1CCN(C(=O)c2ccc(-n3ccc4ccccc43)s2)CC1 (stereo not given) | inactive: -9.98%
Cc1cccc(N2CCN(C(=O)Cn3cnc4sc(C)c(S(=O)(=O)N5CCN(c6ncccn6)CC5)c4c3=O)CC2C)c1 (stereo not given) | inactive: 5.06%
FC(F)(F)c1cccc(-c2nnn3c2nc(NC2CCCCC2)c2ccccc23)c1 | inactive: -11.2%

SMILES | activation
Cc1cccc(-c2nc(CSCC(=O)N3CCN(c4ccccc4)CC3)c(C)o2)c1 | inactive: -10.2%
COc1ccccc1N1CCN(c2ccc(-c3nc(-c4ccccc4C)no3)cc2[N+](=O)[O-])CC1 | inactive: -10.6%
COc1cc(N)c(Cl)cc1C(=O)NC1CCN(Cc2ccccc2)CC1 | inactive: -18.4%
COc1ccccc1Cc1nc2ccccc2nc1SCC(=O)N1CCc2ccccc21 | inactive: -14.6%
CCOc1ccc(CCNC(=O)c2cc(=O)[nH]c3ccc(S(=O)(=O)N4CCCCC4)cc23)cc1OCC | inactive: -1.9%
COc1cccc(NC(=O)C(=O)NCCc2csc(-c3ccc(C(F)(F)F)cc3)n2)c1 | inactive: -10.3%
CCOc1ccccc1CNC(=O)C1CCN(S(=O)(=O)c2c(C)noc2/C=C/c2ccc(C)cc2)CC1 | inactive: 4.16%
S=P(N1CC1)(N1CC1)N1CC1 | inactive: -8.52% [at 129 µM]
COc1cc([N+](=O)[O-])ccc1NC(=O)N1CCN(c2cc(-c3noc(C)n3)ccc2C)CC1 | inactive: -12.3%
COc1ccc(NC(=O)C(C)n2nnc3sc(-c4ccccc4)cc3c2=O)cc1Cl (stereo not given) | inactive: -12.4%
FC(F)(F)c1cccc(N2CCN(Cc3nnc(-c4ccc5c(c4)OCO5)o3)CC2)c1 | inactive: -13.9%
O=C(Cc1ccc(F)cc1)NCc1nc2cccnc2n1Cc1ccc(F)cc1 | inactive: 10.2%
Cc1ccccc1OCC(=O)Nc1ccc(OCc2cc(=O)n3ccsc3n2)cc1 | inactive: -13.1%
CCOC(=O)c1cccc(NC(=O)N2CCC(CN3CCc4ccccc4C3)CC2)c1 | inactive: -1.42%
CC1CCCN(Cc2nc3c(c(=O)n(C)c(=O)n3C)n2Cc2ccc(Cl)cc2Cl)C1 (stereo not given) | inactive: -27.5%
CC(C)(C)C1CCc2c(sc(NC(=O)CCC(=O)O)c2C(=O)Nc2ccccc2C(F)(F)F)C1 (stereo not given) | inactive: -14.4%
CCCc1cc(=O)oc2cc(C)c3c(-c4cccc(OC)c4)coc3c12 | inactive: -20.8%
NS(=O)(=O)c1ccc(CCNC(=O)c2ccc3nc(Cc4ccccc4)oc3c2)cc1 | inactive: -12.6%
CCOC(=O)c1cccc(NC(=O)N2CC(CC)Sc3ccccc32)c1 (stereo not given) | inactive: -9.89%
COc1cccc(-c2nc(SCC(=O)NCC3CCCO3)c(-c3ccc(F)cc3)[nH]2)c1 (stereo not given) | inactive: -9.69%

SMILES | activation
CCOc1ccc(S(=O)(=O)c2c[nH]c3ccccc3c2=O)cc1 | inactive: -1.16%
COc1ccc(CCNC(=O)C2CCN(c3ncnc4c3nc3n4CCCCC3)CC2)c(OC)c1 | inactive: -6.78%
Cc1ccccc1C(=O)Nc1ccc2nc(Nc3cccc(C(F)(F)F)c3)cc(C)c2c1 | inactive: -0.139%
CN(C)CCNC(=O)CN1C(=O)CCn2nc(-c3cn(C)c4ccccc34)cc21 | inactive: -16.8%
CCc1ccc(NC(=O)Cn2ncc3c(C)n(Cc4cccc(Cl)c4)c(C)c3c2=O)cc1 | inactive: -12.1%
Cc1cc(C)cc(-n2nnc(-c3nsc(NC(=O)c4ccccc4Cl)n3)c2C)c1 | inactive: -1.99%
COC(=O)c1ccc2c(=O)n(CCCCCC(=O)N3CCN(c4cc(Cl)ccc4C)CC3)c(=O)[nH]c2c1 | inactive: -7.35%
COc1cccc(CNC(=O)c2ccc(-c3nc(CS(=O)(=O)c4ccccc4)c(C)o3)cc2)c1 | inactive: -7.12%
CCC1CCCCN1C(=O)CSc1n[nH]c(-c2ccccc2Cl)n1 (stereo not given) | inactive: -15.8%
CCN(c1ccc(OC)cc1)S(=O)(=O)c1nnc(NC(=O)c2ccccc2C)s1 | inactive: 0.26%
COC(=O)c1cc2sccc2n1Cc1nc(-c2cccc(Br)c2)oc1C | inactive: -12.7%
O=C(Nc1cccc(C(=O)N2CCN(c3ccccc3F)CC2)c1)c1nsc2ccccc12 | inactive: -11%
COc1ccccc1Nc1c2c(nc3ccc(NC(=O)c4cccc(OC)c4OC)cc13)CCCC2 | inactive: -23.4%
O=C(Nc1ccc(C(F)(F)F)cc1)C1CCCN(S(=O)(=O)c2cccc3cccnc23)C1 (stereo not given) | inactive: -30.3%
CC(=O)Nc1ccc(S(=O)(=O)NCc2ccc(C(=O)NCc3ccc(Cl)cc3)cc2)cc1 | inactive: -10.9%
Cc1ccc(Cn2c(CNS(=O)(=O)c3ccc(Cl)s3)nc3cccnc32)cc1 | inactive: 0.654%
Cc1cccc(-c2nc(SCC(=O)NCc3ccco3)c3c(=O)n(C)c(=O)n(C)c3n2)c1 | inactive: -15%
Cc1cc2[nH]c(=O)c(=O)[nH]c2cc1S(=O)(=O)N1CCN(c2cccc(C)c2C)CC1 | inactive: -12.7%
COc1ccccc1N1CCN(c2nc3c(S(=O)(=O)c4ccc(C)c(C)c4)nnn3c3ccc(Cl)cc23)CC1 | inactive: -10%
CCOC(=O)C(=O)Nc1c(C(=O)Nc2cccc(F)c2)oc2ccccc12 | inactive: -11.8%
